From article PMC8424649
Results are given in words; binding and its absence hold for the method and conditions named. Binding seen in cells or lysates may run through a third protein. Some entries that bind do so weakly or less than the wild type. Values belong to the substance of their own block, whether it stands above or below them.

Amino acid sequences for entries named in this document (tags omitted). A change or cut given only in a name is not applied to a line headed by its entry.
UniProt P40692: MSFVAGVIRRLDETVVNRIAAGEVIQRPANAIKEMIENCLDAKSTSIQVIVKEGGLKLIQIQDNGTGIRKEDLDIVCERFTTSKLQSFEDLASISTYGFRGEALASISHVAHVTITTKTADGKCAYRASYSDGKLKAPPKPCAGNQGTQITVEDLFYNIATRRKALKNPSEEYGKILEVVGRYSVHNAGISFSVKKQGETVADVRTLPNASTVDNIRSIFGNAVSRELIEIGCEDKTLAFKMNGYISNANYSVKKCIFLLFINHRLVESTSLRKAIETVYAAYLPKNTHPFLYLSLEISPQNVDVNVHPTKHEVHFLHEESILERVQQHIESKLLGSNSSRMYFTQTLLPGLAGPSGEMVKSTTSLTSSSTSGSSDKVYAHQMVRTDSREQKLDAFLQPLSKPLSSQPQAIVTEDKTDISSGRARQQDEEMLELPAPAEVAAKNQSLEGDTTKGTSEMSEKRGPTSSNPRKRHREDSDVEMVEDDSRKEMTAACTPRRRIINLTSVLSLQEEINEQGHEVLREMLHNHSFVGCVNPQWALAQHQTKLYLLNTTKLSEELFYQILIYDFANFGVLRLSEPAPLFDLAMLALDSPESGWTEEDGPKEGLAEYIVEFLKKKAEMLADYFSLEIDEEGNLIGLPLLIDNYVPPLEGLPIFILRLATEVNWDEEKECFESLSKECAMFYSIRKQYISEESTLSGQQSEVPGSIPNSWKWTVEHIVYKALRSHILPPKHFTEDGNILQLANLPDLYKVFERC
UniProt Q9Y2M0: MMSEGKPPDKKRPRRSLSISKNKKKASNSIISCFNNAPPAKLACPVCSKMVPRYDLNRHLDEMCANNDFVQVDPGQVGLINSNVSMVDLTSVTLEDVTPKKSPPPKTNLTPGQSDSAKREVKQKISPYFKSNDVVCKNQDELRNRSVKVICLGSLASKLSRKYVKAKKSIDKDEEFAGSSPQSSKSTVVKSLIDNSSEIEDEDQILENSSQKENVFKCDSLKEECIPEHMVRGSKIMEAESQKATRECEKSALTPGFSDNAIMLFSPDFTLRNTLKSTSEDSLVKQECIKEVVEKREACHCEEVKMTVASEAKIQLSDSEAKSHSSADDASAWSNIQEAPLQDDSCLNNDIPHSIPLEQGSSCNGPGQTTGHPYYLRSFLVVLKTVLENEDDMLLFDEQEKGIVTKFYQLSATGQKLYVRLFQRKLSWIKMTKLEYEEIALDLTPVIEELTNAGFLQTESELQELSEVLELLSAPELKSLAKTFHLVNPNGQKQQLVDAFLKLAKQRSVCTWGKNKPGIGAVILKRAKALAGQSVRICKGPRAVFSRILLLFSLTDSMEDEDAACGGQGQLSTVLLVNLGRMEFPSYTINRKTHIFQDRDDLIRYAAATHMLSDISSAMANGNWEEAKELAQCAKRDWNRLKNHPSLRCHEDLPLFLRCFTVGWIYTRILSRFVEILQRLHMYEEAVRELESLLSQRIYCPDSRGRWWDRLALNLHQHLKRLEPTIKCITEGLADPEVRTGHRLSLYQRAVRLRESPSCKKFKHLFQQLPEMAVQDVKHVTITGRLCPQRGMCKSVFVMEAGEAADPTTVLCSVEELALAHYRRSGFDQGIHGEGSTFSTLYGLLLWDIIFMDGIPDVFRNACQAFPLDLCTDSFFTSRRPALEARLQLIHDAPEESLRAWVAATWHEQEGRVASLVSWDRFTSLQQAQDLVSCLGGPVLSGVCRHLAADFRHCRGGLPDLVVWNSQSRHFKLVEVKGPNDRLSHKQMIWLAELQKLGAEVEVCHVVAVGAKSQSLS
UniProt P20585: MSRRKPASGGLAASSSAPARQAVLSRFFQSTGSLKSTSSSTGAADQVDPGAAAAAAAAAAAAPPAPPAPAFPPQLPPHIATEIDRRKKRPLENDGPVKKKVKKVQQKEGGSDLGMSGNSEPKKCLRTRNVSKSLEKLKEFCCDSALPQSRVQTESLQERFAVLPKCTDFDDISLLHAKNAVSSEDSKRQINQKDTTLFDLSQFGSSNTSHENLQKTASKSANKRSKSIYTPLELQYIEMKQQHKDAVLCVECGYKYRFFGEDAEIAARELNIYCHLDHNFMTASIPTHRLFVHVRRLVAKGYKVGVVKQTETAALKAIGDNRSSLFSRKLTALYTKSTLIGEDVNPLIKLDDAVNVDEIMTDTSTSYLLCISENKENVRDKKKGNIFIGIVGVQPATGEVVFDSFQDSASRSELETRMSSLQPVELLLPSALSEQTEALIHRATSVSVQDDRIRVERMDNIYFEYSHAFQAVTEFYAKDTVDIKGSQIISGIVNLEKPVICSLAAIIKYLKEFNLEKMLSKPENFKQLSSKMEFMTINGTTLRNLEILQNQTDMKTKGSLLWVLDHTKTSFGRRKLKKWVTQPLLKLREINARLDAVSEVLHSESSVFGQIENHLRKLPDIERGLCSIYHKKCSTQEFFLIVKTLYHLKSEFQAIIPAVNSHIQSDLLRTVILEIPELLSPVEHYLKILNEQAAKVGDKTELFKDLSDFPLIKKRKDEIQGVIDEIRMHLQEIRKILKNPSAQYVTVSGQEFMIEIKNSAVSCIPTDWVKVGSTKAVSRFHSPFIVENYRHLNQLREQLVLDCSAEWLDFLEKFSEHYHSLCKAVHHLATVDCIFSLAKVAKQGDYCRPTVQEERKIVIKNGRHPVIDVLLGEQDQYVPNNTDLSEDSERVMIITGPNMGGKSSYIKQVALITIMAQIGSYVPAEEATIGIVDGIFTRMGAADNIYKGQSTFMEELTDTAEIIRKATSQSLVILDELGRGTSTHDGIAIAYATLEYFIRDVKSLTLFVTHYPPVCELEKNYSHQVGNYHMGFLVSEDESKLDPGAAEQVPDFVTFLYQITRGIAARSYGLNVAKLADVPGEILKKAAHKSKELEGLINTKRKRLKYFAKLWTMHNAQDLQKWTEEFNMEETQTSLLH
UniProt Q9NVI1: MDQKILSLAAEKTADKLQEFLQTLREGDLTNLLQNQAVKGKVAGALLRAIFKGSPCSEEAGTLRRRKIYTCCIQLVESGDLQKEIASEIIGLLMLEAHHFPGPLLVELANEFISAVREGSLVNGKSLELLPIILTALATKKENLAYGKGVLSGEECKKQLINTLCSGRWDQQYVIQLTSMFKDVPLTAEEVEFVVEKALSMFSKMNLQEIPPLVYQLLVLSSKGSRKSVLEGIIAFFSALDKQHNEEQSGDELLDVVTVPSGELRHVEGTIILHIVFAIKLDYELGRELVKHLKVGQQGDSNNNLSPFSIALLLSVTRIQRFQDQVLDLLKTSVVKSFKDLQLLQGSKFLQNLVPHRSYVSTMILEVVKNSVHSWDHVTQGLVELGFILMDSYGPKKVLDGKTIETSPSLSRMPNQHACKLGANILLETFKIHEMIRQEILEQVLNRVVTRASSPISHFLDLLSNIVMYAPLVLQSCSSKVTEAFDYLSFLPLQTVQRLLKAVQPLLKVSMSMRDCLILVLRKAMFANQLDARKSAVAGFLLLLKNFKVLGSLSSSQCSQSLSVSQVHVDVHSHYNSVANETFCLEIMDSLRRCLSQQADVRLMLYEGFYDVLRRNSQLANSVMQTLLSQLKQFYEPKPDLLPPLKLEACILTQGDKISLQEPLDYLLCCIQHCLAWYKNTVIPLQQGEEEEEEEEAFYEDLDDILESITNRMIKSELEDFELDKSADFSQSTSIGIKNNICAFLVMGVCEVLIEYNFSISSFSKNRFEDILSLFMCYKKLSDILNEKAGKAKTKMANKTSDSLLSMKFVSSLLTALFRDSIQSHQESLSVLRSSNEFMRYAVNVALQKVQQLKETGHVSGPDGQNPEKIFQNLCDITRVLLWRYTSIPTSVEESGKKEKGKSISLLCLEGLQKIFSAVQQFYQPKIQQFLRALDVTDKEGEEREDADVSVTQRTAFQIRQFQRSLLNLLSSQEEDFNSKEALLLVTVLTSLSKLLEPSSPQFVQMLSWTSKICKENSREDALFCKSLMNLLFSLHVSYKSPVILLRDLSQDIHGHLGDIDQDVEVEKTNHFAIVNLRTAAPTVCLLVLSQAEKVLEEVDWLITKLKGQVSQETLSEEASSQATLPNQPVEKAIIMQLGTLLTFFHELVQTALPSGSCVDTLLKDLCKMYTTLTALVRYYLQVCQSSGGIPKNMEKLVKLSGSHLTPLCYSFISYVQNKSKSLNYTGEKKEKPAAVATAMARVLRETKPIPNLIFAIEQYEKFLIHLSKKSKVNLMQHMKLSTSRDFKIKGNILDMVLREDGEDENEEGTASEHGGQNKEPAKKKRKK
UniProt P52701: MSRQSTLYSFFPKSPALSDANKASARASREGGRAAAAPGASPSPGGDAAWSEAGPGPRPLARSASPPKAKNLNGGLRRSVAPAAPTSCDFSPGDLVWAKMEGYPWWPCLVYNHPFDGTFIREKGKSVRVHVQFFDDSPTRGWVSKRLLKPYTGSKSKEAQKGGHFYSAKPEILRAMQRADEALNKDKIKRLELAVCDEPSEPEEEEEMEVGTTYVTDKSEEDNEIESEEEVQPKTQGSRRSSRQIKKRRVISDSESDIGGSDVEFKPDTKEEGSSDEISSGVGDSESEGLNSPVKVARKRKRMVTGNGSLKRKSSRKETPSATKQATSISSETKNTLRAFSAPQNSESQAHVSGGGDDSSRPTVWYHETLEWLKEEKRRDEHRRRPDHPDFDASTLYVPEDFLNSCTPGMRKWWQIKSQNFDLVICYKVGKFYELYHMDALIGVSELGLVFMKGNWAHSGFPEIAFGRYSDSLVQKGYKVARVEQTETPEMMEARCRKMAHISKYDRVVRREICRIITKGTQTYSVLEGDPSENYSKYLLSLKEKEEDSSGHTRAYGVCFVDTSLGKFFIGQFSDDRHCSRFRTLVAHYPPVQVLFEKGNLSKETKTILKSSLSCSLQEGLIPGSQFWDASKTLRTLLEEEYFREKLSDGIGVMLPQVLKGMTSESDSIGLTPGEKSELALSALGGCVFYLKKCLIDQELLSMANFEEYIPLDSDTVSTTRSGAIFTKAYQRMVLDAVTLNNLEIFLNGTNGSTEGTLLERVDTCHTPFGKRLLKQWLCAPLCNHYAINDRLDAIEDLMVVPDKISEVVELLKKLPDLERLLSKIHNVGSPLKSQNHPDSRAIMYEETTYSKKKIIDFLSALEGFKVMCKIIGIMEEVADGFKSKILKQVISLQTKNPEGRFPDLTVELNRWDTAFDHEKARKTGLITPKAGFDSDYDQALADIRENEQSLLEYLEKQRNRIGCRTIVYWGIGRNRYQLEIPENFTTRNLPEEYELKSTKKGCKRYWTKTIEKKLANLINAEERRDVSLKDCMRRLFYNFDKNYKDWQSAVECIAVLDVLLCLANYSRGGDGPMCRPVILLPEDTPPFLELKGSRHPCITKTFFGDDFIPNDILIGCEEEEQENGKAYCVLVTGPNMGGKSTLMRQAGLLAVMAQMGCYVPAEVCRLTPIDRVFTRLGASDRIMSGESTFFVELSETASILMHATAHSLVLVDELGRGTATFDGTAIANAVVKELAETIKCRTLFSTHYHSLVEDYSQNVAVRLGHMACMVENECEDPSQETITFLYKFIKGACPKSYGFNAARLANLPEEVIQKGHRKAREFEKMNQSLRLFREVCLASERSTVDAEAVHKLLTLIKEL
UniProt Q9JK91: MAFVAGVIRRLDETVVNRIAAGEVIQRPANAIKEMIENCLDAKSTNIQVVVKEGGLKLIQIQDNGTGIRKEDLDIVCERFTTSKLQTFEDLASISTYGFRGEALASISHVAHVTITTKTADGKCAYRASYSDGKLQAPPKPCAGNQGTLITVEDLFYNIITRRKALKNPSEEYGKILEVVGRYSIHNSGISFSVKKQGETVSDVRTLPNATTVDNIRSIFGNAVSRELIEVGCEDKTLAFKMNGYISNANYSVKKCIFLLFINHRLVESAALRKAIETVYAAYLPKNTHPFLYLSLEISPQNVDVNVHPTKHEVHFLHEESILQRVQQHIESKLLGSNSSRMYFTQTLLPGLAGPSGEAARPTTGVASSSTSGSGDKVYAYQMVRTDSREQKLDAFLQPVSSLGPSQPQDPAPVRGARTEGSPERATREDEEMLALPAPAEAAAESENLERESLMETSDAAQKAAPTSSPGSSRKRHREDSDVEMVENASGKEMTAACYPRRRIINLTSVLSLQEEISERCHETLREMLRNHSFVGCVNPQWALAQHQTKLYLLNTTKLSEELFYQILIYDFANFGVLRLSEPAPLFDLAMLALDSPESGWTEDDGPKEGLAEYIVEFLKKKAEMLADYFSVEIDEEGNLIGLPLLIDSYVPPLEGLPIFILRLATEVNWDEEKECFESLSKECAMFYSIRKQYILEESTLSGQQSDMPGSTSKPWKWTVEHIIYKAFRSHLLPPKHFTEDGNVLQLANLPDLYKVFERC

Experiments:
[1] = target: MLH1 (endogenous, human) (human (endogenous in iPSCs, lymphoblastoid cells, U2OS, HEK293T, MSNs, HeLa)) (UniProt P40692); test: co-IP; peptide competition: synthetic FAN1 60-mer peptide (15 μM in Figure 4H) added to HeLa nuclear extract before the anti-MLH1 IP; read-out MSH3 in the IP; only the binder purified
[2] = target: MLH1 (endogenous, human) (human (endogenous in iPSCs, lymphoblastoid cells, U2OS, HEK293T, MSNs, HeLa)) (UniProt P40692); test: co-IP; endogenous proteins in extracts of HD iPSCs (125 CAG); FAN1 sheep polyclonal or MLH1 monoclonal antibody with protein G magnetic beads; IP buffer 20 mM Tris pH 7.4, 150 mM NaCl, 1 mM EDTA, 1% Triton X-100, Benzonase
[3] = target: FAN1 (endogenous, human) (human (endogenous in HD iPSCs, lymphoblastoid cells, MSNs)) (UniProt Q9Y2M0); test: cross-linking; xIP-MS: endogenous FAN1 from lymphoblastoid cell lysate with sheep FAN1 antibody and protein G magnetic beads, on-bead cross-linking with 1 mM BS3 d0/d12, 30 min, 37°C, mass spectrometry (xQuest/xProphet)
[4] = target: myc-tagged FAN1^FL (human) (UniProt Q9Y2M0); test: cross-linking; xIP-MS: myc-FAN1 from HEK293T lysate on anti-c-myc magnetic beads, on-bead cross-linking with 1 mM BS3 d0/d12, 30 min, 37°C, mass spectrometry (xQuest/xProphet)
[5] = target: MLH1 (endogenous, human) (human (endogenous in iPSCs, lymphoblastoid cells, U2OS, HEK293T, MSNs, HeLa)) (UniProt P40692); test: co-IP; MLH1 antibody with protein G magnetic beads on extracts of U2OS cells (FAN1−/−, FAN1^FL, FAN1^1–349); IP buffer with Benzonase
[6] = target: MSH3 (endogenous, human) (human (endogenous in iPSCs, U2OS, MSNs, HeLa)) (UniProt P20585); test: co-IP; MSH3 antibody with protein G magnetic beads on extracts of U2OS FAN1−/− and FAN1^FL cells; IP buffer with Benzonase
[7] = target: T1, FAN1 (endogenous, mouse) (mouse (endogenous in cortex of zQ175 and R6/2 mice)) (UniProt Q69ZT1); test: co-IP; endogenous proteins in cortical extracts of zQ175 (6 months) and R6/2 (12 weeks) mice; homogenized in modified RIPA buffer with Benzonase, diluted 1 to 10 with IP buffer
T1 sequence: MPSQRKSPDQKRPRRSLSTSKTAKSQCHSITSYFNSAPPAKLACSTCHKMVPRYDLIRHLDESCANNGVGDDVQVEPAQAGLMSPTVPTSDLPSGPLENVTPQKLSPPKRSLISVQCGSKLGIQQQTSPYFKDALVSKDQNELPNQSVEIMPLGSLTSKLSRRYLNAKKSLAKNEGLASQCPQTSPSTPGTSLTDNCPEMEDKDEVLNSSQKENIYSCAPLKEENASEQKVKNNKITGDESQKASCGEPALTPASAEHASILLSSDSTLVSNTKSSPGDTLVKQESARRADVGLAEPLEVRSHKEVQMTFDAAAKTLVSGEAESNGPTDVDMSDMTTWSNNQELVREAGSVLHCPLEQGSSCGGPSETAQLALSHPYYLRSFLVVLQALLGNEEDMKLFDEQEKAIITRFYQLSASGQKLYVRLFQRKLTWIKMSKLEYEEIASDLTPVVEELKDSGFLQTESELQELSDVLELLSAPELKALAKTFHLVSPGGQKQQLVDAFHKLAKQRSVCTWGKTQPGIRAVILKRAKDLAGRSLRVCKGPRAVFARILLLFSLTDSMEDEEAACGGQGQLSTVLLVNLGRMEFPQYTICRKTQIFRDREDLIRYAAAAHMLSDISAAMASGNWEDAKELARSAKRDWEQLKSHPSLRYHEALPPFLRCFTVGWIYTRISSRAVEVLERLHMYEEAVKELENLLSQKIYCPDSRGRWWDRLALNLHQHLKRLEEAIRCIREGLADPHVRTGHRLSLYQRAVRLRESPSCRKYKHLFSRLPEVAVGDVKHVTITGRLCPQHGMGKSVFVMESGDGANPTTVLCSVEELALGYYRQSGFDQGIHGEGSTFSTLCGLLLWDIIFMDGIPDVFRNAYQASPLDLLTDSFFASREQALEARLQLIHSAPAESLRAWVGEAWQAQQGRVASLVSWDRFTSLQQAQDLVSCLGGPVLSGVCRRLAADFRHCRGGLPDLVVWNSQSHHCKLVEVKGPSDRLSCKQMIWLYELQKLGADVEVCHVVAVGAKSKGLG

[8] = target: FAN1 (endogenous, human) (human (endogenous in HD iPSCs, lymphoblastoid cells, MSNs)) (UniProt Q9Y2M0); test: co-IP; endogenous proteins in extracts of HD iPSCs (125 CAG); FAN1 sheep polyclonal or MLH1 monoclonal antibody with protein G magnetic beads; IP buffer 20 mM Tris pH 7.4, 150 mM NaCl, 1 mM EDTA, 1% Triton X-100, Benzonase
[9] = target: GFP-FAN1, full-length FAN1 (FAN1^FL) (human) (UniProt Q9Y2M0); test: co-IP; GFP-Trap beads on extracts of U2OS cells expressing GFP-FAN1 constructs; endogenous partners detected by blot; IP buffer 20 mM Tris pH 7.4, 150 mM NaCl, 1 mM EDTA, 1% Triton X-100, Benzonase

Substance: FANCI (endogenous, human) (from UniProt Q9NVI1 1-1328)
- binding [3]: binds
- binding [4]: binds

Substance: GFP-FAN1^1–349 (from UniProt Q9Y2M0 1-349) (domain or fragment)
- binding [5]: binds

Substance: MSH3 (endogenous, human) (from UniProt P20585 1-1137)
- binding [8]: no binding
- binding [9]: no binding

Substance: MSH6 (endogenous, human) (from UniProt P52701 1-1360)
- binding [9]: no binding

Continued, values first:

- binding [1]: binds
Substance: FAN1 60-mer wild-type peptide (amino acids 118-177) (from UniProt Q9Y2M0 118-177)

- binding [2]: binds
Substance: FAN1 (endogenous, human) (from UniProt Q9Y2M0 1-1017)

- binding [5]: binds
- binding [6]: no binding
Substance: GFP-FAN1, full-length FAN1 (FAN1^FL) (from UniProt Q9Y2M0 1-1017)

- binding [7]: binds
Substance: MLH1 (endogenous, mouse) (from UniProt Q9JK91 1-760)
